# Assay results from the supplement of paper PMC8728848.
# This is one part of the list.
# B1: DC SIGN CRD (Homo sapiens), Q9NNX6 (protein)
# chain: QPCPWEWTFFQGNCYFMSNSQRNWHDSITACKEVGAQLVVIKSAEEQNFLQLQSSRSNRFTWMGLSDLNQEGTWQWVDGSPLLPSFKQYWNRGEPNNVGEEDCAEFSGNGWNDDKCNLAKFWICKKSAWSHPQFEK
# How the values were obtained:
# Experiment in all cases: glycan array binding signal (z-score within array); higher = stronger binding
# Conditions in all cases: glycan notation: IUPAC condensed, linker removed
# [1] = target: Neu5Ac(a2-3)Gal(b1-3)[Neu5Ac(a2-6)]GalNAc
# Procedure, shortened: (§1)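 The binding signal is a Z-score computed within each array and averaged over linkers. Arrays of the same protein sequence at different concentrations or buffers were also averaged together. Data originate from 3228 arrays in the Consortium for Functional Glycomics database, kept only where the protein sequence was available.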
# Neu5Ac(a2-3)Gal(b1-4)Glc = target: Neu5Ac(a2-3)Gal(b1-4)Glc
# Procedure, shortened: as §1
# [2] = target: Neu5Ac(a2-3)Gal(b1-4)GlcNAc
# Procedure, shortened: as §1
# [3] = target: Neu5Ac(a2-3)Gal(b1-4)GlcNAc(b1-3)Gal(b1-3)GlcNAc
# Procedure, shortened: as §1
# [4] = target: Neu5Ac(a2-3)Gal(b1-4)GlcNAc(b1-3)Gal(b1-4)GlcNAc
# Procedure, shortened: as §1
# [5] = target: Neu5Ac(a2-3)Gal(b1-4)GlcNAc(b1-3)Gal(b1-4)GlcNAc(b1-3)Gal(b1-4)GlcNAc
# Procedure, shortened: as §1
# [6] = target: Neu5Ac(a2-3)Gal(b1-4)GlcNAc(b1-3)Gal(b1-4)[Fuc(a1-3)]GlcNAc
# Procedure, shortened: as §1
# [7] = target: Neu5Ac(a2-3)Gal(b1-4)GlcNAc(b1-6)[Gal(b1-3)]GalNAc
# Procedure, shortened: as §1
# [8] = target: Neu5Ac(a2-3)Gal(b1-4)GlcNAc6S
# Procedure, shortened: as §1
# [9] = target: Neu5Ac(a2-3)Gal(b1-4)[Fuc(a1-3)]GlcNAc
# Procedure, shortened: as §1
# [10] = target: Neu5Ac(a2-3)Gal(b1-4)[Fuc(a1-3)]GlcNAc(b1-3)Gal
# Procedure, shortened: as §1
# [11] = target: Neu5Ac(a2-3)Gal(b1-4)[Fuc(a1-3)]GlcNAc(b1-3)Gal(b1-4)GlcNAc
# Procedure, shortened: as §1
# [12] = target: Neu5Ac(a2-3)Gal(b1-4)[Fuc(a1-3)]GlcNAc(b1-3)Gal(b1-4)[Fuc(a1-3)]GlcNAc(b1-3)Gal(b1-4)[Fuc(a1-3)]GlcNAc
# Procedure, shortened: as §1
# [13] = target: Neu5Ac(a2-3)Gal(b1-4)[Fuc(a1-3)]GlcNAc6S
# Procedure, shortened: as §1
# [14] = target: Neu5Ac(a2-3)Gal6S(b1-4)GlcNAc
# Procedure, shortened: as §1
# [15] = target: Neu5Ac(a2-3)Gal6S(b1-4)[Fuc(a1-3)]GlcNAc
# Procedure, shortened: as §1
# Neu5Ac(a2-3)GalNAc = target: Neu5Ac(a2-3)GalNAc
# Procedure, shortened: as §1
# [16] = target: Neu5Ac(a2-3)GalNAc(b1-4)GlcNAc
# Procedure, shortened: as §1
# [17] = target: Neu5Ac(a2-3)[GalNAc(b1-4)]Gal(b1-4)Glc
# Procedure, shortened: as §1
# [18] = target: Neu5Ac(a2-3)[GalNAc(b1-4)]Gal(b1-4)GlcNAc
# Procedure, shortened: as §1
# [19] = target: Neu5Ac(a2-3)[Neu5Ac(a2-6)]GalNAc
# Procedure, shortened: as §1
# [20] = target: Neu5Ac(a2-6)Gal(b1-4)GlcNAc
# Procedure, shortened: as §1
# [21] = target: Neu5Ac(a2-6)Gal(b1-4)GlcNAc(b1-2)Man(a1-3)[Neu5Ac(a2-6)Gal(b1-4)GlcNAc(b1-2)Man(a1-6)]Man(b1-4)GlcNAc(b1-4)GlcNAc
# Procedure, shortened: as §1
# [22] = target: Neu5Ac(a2-6)Gal(b1-4)GlcNAc(b1-3)Gal(b1-4)GlcNAc
# Procedure, shortened: as §1
# [23] = target: Neu5Ac(a2-6)Gal(b1-4)GlcNAc(b1-3)Gal(b1-4)[Fuc(a1-3)]GlcNAc(b1-3)Gal(b1-4)[Fuc(a1-3)]GlcNAc
# Procedure, shortened: as §1
# [24] = target: Neu5Ac(a2-6)Gal(b1-4)GlcNAc6S
# Procedure, shortened: as §1
# Neu5Ac(a2-6)GalNAc = target: Neu5Ac(a2-6)GalNAc
# Procedure, shortened: as §1
# [25] = target: Neu5Ac(a2-6)GalNAc(b1-4)GlcNAc
# Procedure, shortened: as §1
# Neu5Ac(a2-8)Neu5Ac = target: Neu5Ac(a2-8)Neu5Ac
# Procedure, shortened: as §1
# [26] = target: Neu5Ac(a2-8)Neu5Ac(a2-3)Gal(b1-4)Glc
# Procedure, shortened: as §1
# [27] = target: Neu5Ac(a2-8)Neu5Ac(a2-3)[GalNAc(b1-4)]Gal(b1-4)Glc
# Procedure, shortened: as §1
# [28] = target: Neu5Ac(a2-8)Neu5Ac(a2-8)Neu5Ac
# Procedure, shortened: as §1
# [29] = target: Neu5Ac(a2-8)Neu5Ac(a2-8)Neu5Ac(a2-3)Gal(b1-4)Glc
# Procedure, shortened: as §1
# [30] = target: Neu5Ac(a2-8)Neu5Ac(a2-8)Neu5Ac(a2-3)[GalNAc(b1-4)]Gal(b1-4)Glc
# Procedure, shortened: as §1
# [31] = target: Neu5Ac(a2-8)Neu5Ac(a2-8)Neu5Ac(a2-8)Neu5Ac(a2-3)[GalNAc(b1-4)]Gal(b1-4)Glc
# Procedure, shortened: as §1
# [32] = target: Neu5Ac9Ac(a2-6)Gal(b1-4)GlcNAc
# Procedure, shortened: as §1
# [33] = target: Neu5Gc(a2-3)Gal(b1-3)GlcNAc
# Procedure, shortened: as §1
# [34] = target: Neu5Gc(a2-3)Gal(b1-3)[Fuc(a1-4)]GlcNAc
# Procedure, shortened: as §1
# Neu5Gc(a2-3)Gal(b1-4)Glc = target: Neu5Gc(a2-3)Gal(b1-4)Glc
# Procedure, shortened: as §1
# [35] = target: Neu5Gc(a2-3)Gal(b1-4)GlcNAc
# Procedure, shortened: as §1
# [36] = target: Neu5Gc(a2-3)Gal(b1-4)[Fuc(a1-4)]GlcNAc
# Procedure, shortened: as §1
# [37] = target: Neu5Gc(a2-6)Gal(b1-4)GlcNAc
# Procedure, shortened: as §1
# Neu5Gc(a2-6)GalNAc = target: Neu5Gc(a2-6)GalNAc
# Procedure, shortened: as §1
binder,measurement,setting,value
B1,glycan array binding signal (z-score),[1],-0.378
same,glycan array binding signal (z-score),Neu5Ac(a2-3)Gal(b1-4)Glc,-0.386
same,glycan array binding signal (z-score),[2],-0.387
same,glycan array binding signal (z-score),[3],-0.36
same,glycan array binding signal (z-score),[4],-0.383
same,glycan array binding signal (z-score),[5],-0.389
same,glycan array binding signal (z-score),[6],-0.369
same,glycan array binding signal (z-score),[7],-0.381
same,glycan array binding signal (z-score),[8],-0.274
same,glycan array binding signal (z-score),[9],-0.361
same,glycan array binding signal (z-score),[10],-0.378
same,glycan array binding signal (z-score),[11],-0.284
same,glycan array binding signal (z-score),[12],-0.283
same,glycan array binding signal (z-score),[13],-0.371
same,glycan array binding signal (z-score),[14],-0.405
same,glycan array binding signal (z-score),[15],-0.394
same,glycan array binding signal (z-score),Neu5Ac(a2-3)GalNAc,-0.386
same,glycan array binding signal (z-score),[16],-0.379
same,glycan array binding signal (z-score),[17],-0.356
same,glycan array binding signal (z-score),[18],-0.296
same,glycan array binding signal (z-score),[19],-0.384
same,glycan array binding signal (z-score),[20],-0.382
same,glycan array binding signal (z-score),[21],-0.313
same,glycan array binding signal (z-score),[22],-0.37
same,glycan array binding signal (z-score),[23],-0.044
same,glycan array binding signal (z-score),[24],-0.378
same,glycan array binding signal (z-score),Neu5Ac(a2-6)GalNAc,-0.391
same,glycan array binding signal (z-score),[25],-0.365
same,glycan array binding signal (z-score),Neu5Ac(a2-8)Neu5Ac,-0.36
same,glycan array binding signal (z-score),[26],-0.227
same,glycan array binding signal (z-score),[27],-0.183
same,glycan array binding signal (z-score),[28],-0.397
same,glycan array binding signal (z-score),[29],-0.402
same,glycan array binding signal (z-score),[30],-0.199
same,glycan array binding signal (z-score),[31],-0.323
same,glycan array binding signal (z-score),[32],-0.047
same,glycan array binding signal (z-score),[33],-0.273
same,glycan array binding signal (z-score),[34],-0.042
same,glycan array binding signal (z-score),Neu5Gc(a2-3)Gal(b1-4)Glc,-0.357
same,glycan array binding signal (z-score),[35],-0.335
same,glycan array binding signal (z-score),[36],-0.393
same,glycan array binding signal (z-score),[37],-0.379
same,glycan array binding signal (z-score),Neu5Gc(a2-6)GalNAc,-0.397
